# In PubChem BioAssay AID504339 (National Center for Advancing Translational Sciences (NCATS), 2011):
# The whole screen tested about 390,000 compounds, of which about 17,000 (4.4%) were called active. The inconclusive results got no clear call from the source; some entries with a clear call stand among them for comparison. The call rests on the fitted dose curve; in most records, active means well fitted inhibition curve with a large enough effect; inconclusive means small, poorly fitted or top-dose-only effect; inactive means no such curve, though single readings can be large or run the other way. Potencies of inconclusive entries are doubtful fits and often do not repeat.
# Target: Lysine-specific demethylase 4A (Homo sapiens) (UniProt O75164)
# Test: qHTS Assay for Inhibitors of JMJD2A-Tudor Domain; further: nearly all actives have a fitted effect of over 50% in size
# Conditions: AlphaScreen JMJD2A-Tudor / H3K4me3 peptide binding; activity change, negative = inhibition: at 114 µM (top of the series)
# On the % scale 0 is the no-effect control and ±100 the full control effect; potency means the concentration at half of the fitted maximal effect; tags describe the fitted curve by direction and shape.
# UniProt O75164, sequence (O75164 whole entry, looked up, the tested form may be a part): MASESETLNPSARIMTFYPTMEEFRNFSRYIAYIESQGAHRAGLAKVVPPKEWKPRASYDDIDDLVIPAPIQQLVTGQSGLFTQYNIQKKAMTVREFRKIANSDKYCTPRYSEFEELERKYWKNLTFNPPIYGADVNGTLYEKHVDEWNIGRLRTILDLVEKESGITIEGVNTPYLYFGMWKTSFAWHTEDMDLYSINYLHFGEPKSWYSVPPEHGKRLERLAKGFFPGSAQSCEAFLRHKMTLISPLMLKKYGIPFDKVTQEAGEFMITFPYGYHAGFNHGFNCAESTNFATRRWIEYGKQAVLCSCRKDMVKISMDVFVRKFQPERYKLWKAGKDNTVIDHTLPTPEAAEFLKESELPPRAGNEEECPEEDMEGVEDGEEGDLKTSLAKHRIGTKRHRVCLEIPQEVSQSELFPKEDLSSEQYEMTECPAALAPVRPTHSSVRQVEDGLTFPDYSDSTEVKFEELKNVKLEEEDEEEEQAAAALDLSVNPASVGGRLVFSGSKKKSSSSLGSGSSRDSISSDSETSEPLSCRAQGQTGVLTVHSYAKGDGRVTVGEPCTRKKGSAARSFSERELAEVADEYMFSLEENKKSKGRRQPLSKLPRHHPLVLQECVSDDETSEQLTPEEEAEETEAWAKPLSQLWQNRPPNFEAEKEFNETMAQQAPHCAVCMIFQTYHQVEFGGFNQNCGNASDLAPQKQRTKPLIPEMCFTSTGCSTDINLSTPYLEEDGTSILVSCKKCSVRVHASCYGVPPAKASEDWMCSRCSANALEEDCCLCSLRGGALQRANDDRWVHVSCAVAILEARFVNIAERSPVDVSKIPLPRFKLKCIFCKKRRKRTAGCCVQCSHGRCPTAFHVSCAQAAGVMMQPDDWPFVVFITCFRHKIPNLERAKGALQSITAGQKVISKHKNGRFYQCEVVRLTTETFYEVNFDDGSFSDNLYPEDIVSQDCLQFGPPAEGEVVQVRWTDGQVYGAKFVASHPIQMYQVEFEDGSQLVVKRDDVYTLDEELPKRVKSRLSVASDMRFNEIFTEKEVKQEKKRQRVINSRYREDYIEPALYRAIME
SMILES,Potency,"activity change, negative = inhibition"
COc1ccccc1NC(=O)CSc1sc2c(O)cc(=O)[nH]c2c1C#N,"inconclusive: 22.4 µM [inhibitor, full curve]",
COCC(C)n1c(SCC(=O)NC(=O)NCc2ccccc2)nc2ccccc2c1=O (configuration not stated),,inactive: -16.4%
Cc1cccc2sc(NC(=O)C3c4ccccc4Oc4ccccc43)nc12,,inactive: -10.6%
O=C1NC2(CCCCCC2)N=C1c1ccc(F)cc1,"inconclusive: 35.5 µM [inhibitor, single point]",
CN(CCCC1CCCC1)C(=O)CC1C(=O)NCCN1Cc1ccc(F)cc1 (configuration not stated),,inactive: -25.5%
COC(=O)c1ccc(CC(=O)c2c(C)cc(O)cc2O)o1,"inconclusive: 31.6 µM [inhibitor, full curve, poor fit]",
Cc1ccc(/C=C/c2nc3ccccc3[nH]2)o1,active: 50.1 µM,
C=CCOc1c(CNn2cn[nH]c2=S)cccc1OC,active: 3.55 µM,
CCC(C)C1=CC(=Nc2c(C)n(C)n(-c3ccccc3)c2=O)C=C(C(C)CC)C1=O (configuration not stated),"inconclusive: 3.16 µM [inhibitor, full curve]",
COc1cccc(NC(=O)CCc2nnc3ccc(N4CCN(c5cccc(OC)c5)CC4)nn23)c1,"inconclusive: 15.8 µM [inhibitor, full curve]",
COC(=O)CN1C(=O)CSc2ccc(S(=O)(=O)Nc3cccc(Cl)c3C)cc21,,inactive: -9.31%
Cc1cc(C)c2sc(N(CCCN(C)C)C(=O)COc3ccc(Cl)cc3)nc2c1,,inactive: -31.7%
COc1cc2[nH]c(C(=O)N3CC(C)OC(C)C3)cc2c(OC)c1OC (configuration not stated),"inconclusive: 1.26 µM [inhibitor, full curve, poor fit]",
Cc1ccccc1Oc1cc(NC(=O)CCCn2nc(C)c([N+](=O)[O-])c2C)cc([N+](=O)[O-])c1,"inconclusive: 0.631 µM [inhibitor, full curve, poor fit]",
CCCCC(=NCCc1c(C)[nH]c2ccccc12)C1=C(O)CC(c2ccccc2)CC1=O (configuration not stated),"inconclusive: 35.5 µM [inhibitor, partial curve]",
C[C@H](CO)N1C[C@H](C)[C@@H](CN(C)Cc2ccc(-c3ccccc3)cc2)Oc2c(NS(=O)(=O)c3ccc(F)cc3)cccc2C1=O,"inconclusive: 50.1 µM [inhibitor, partial curve]",
Oc1ccc2oc3c(c2c1C=NCc1ccncc1)CCCC3,,inactive: -5.63%
O=C(NCCc1ccc(O)c(O)c1)C1COc2ccccc2O1 (configuration not stated),active: 17.8 µM,
O=C1NN(c2ccc(Br)cc2)C(=O)/C1=C\c1ccc(O)cc1O,"inconclusive: 56.2 µM [inhibitor, partial curve]",
CCOC(=O)n1cc(-c2cnc(CNC(=O)C(C)(c3ccccc3)c3ccccc3)o2)c2ccccc21,"inconclusive: 50.1 µM [inhibitor, partial curve]",
Cc1ccn2c(Nc3ccc4c(c3)OCO4)c(-c3ccccn3)nc2c1,active: 12.6 µM,
O=C(CSc1nnc([C@@H]2CCCN2)o1)c1ccc(Cl)cc1,"inconclusive: 89.1 µM [inhibitor, single point]",
COc1ccc(N2CCN(CC(=O)Nc3ccccc3SC)CC2)cc1,"inconclusive: 39.8 µM [inhibitor, partial curve]",
Oc1ccc2ccccc2c1/C=N/c1nc2c(s1)CCCC2,active: 50.1 µM,

SMILES,Potency,"activity change, negative = inhibition"
COc1ccc([C@H]2/C=C\CN(Cc3ccc(N(C)C)cc3)[C@@H](C)C(=O)N2Cc2ccc(F)cc2)cc1,active: 17.8 µM,
COC(=O)c1cc2occc2n1Cc1nc(-c2cccc(Br)c2)oc1C,,inactive: -5.82%
COc1ccc(C(=O)c2sc(Nc3cc(Cl)ccc3C)nc2N)cc1OC,active: 22.4 µM,
Cc1cc(C)cc(C(=O)OCC(=O)N2CCCCCC2)c1,,inactive: -6.08%
O=C(NCC1CCCO1)c1cccc(Oc2ccccc2)c1 (configuration not stated),,inactive: 2.76%
COc1cc(/C=C/C(=O)O)cc(OC)c1O,,inactive: -5.04%
COC(=O)C1=C(C(=O)OC)[C@@H]2N(C)c3ccc(OC)cc3[C@@]23C[C@@H](C(=O)OC)N(C(=O)c2cccs2)C3=N1,"inconclusive: 50.1 µM [inhibitor, partial curve]",
O=C(Nc1ccc2nc3n(c(=O)c2c1)CCCCC3)C(=O)N1CCN(c2ccc(F)cc2)CC1,active: 20 µM,
O=C(Nc1ccccc1OCc1ccccc1)c1ccccc1Br,,inactive: 61.9%
C/C(=N\NC(=O)c1ccc(Cl)c(Cl)c1)c1ccccn1,"inconclusive: 39.8 µM [inhibitor, partial curve]",
CCOC(=O)N1CCN(Cc2nc3cc(NC(=O)c4ccccc4OC)ccc3n2C(C)C)CC1,active: 50.1 µM,
Cc1cccc(OCCOCCN2CCOCC2)c1C,,inactive: -5.81%
FC(F)(F)c1ccc(Cl)c(-n2c(Cc3cccs3)n[nH]c2=S)c1,"inconclusive: 15.8 µM [inhibitor, partial curve, poor fit]",
CCN(c1c(C)n(C)n(-c2ccccc2)c1=O)S(C)(=O)=O,"inconclusive: 89.1 µM [inhibitor, single point]",
Cc1ccc(NC(=O)N/C=C/c2ccco2)cc1,active: 50.1 µM,
OC(COc1cccc2ccccc12)CN1CCN(c2cccc(Cl)c2)CC1 (configuration not stated),"inconclusive: 31.6 µM [inhibitor, partial curve]",
CC(=O)Nc1cc2c(c([N+](=O)[O-])c1C)C(C)(C)CC2(C)C,,inactive: -10.3%
COc1ccc(CCNC(=O)c2ccc(CS(=O)(=O)c3ccc(Br)cc3)o2)cc1OC,"inconclusive: 79.4 µM [inhibitor, partial curve]",
CCOC(=O)N/N=C\c1cccc(OC)c1,"inconclusive: 63.1 µM [inhibitor, partial curve, poor fit]",
CCn1nnc(NC(=O)c2ccc(-c3ccc(Cl)cc3)o2)n1,"inconclusive: 31.6 µM [inhibitor, single point]",
OCCN1CCN(CC/C=C2/c3ccccc3Sc3ccc(Cl)cc32)CC1,"inconclusive: 50.1 µM [inhibitor, partial curve]",
CCn1c(=S)[nH]c2cc(S(=O)(=O)N3CCOCC3)ccc21,active: 17.8 µM,
COc1ccc(CCn2c(=O)c3cccnc3n(Cc3cccc([N+](=O)[O-])c3)c2=O)cc1OC,"inconclusive: 11.2 µM [inhibitor, full curve, poor fit]",
